Measured values reported in the supplement of paper PMC4604168 (melanoma cell lines).
Some of the results follow. Repeats are few or missing, and single values can be far off.

Test system: WM3619
Test: cell count relative to DMSO control; melanoma cells; higher = more viable cells
Details: library dose: standard library concentration; 72 h
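Further: cells treated in 1,536-well plates, then fixed and DAPI-stained, with nuclei counted from automated high-throughput microscope images.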

Row | Compound | cell count [%]
1 | C[C@@H]1CCN(C(=O)CC#N)C[C@@H]1N(C)c1ncnc2[nH]ccc12 + Oc1nc(-c2ccc(C(F)(F)F)cc2)nc2c1CSCC2 [XAV939] (first compound 5 µM, partner dose 10 µM) | 57.8
2 | O=C(Nc1cccc(Cl)c1)Nc1ncc(CCNc2ncnc3ccsc23)s1 + CCCCCCCCCCCC1=C(O)C(=O)C=C(O)C1=O [Embelin] (first compound 0.004 µM, partner dose 6 µM) | 76.3
3 | COc1cc(Nc2ncc(F)c(Nc3ccc4c(n3)NC(=O)C(C)(C)O4)n2)cc(OC)c1OC [Tamatinib] + O=C(Nc1ccccc1)c1cc([N+](=O)[O-])ccc1Cl [GW9662] (first compound 2 µM, partner dose 10 µM) | 38.6
4 | Cn1cncc1[C@@](N)(c1ccc(Cl)cc1)c1ccc2c(c1)c(-c1cccc(Cl)c1)cc(=O)n2C [tipifarnib] + N#Cc1c(O)c2c(-c3ccc(-c4ccccc4O)cc3)csc2[nH]c1=O [A769662] (first compound 0.05 µM, partner dose 10 µM) | 71
5 | O=C(Nc1cccc(Cl)c1)Nc1ncc(CCNc2ncnc3ccsc23)s1 + COc1cc(N2CCC(N3CCN(C)CC3)CC2)ccc1Nc1ncc(Cl)c(Nc2ccccc2S(=O)(=O)C(C)C)n1 [NVP-TAE684] (first compound 0.004 µM, partner dose 0.4 µM) | 65.9

Test system: WM451Lu
Test: as above
Details: library dose: standard library concentration; 72 h

Row | Compound | cell count [%]
6 | CC1(C)NC(=O)N(c2ccc([N+](=O)[O-])c(C(F)(F)F)c2)C1=O [nilutamide] + CCc1ccc(CCOc2ccc(CC3SC(=O)NC3=O)cc2)nc1 [pioglitazone] (first compound 5 µM, partner dose 10 µM) | 95.9
7 | O=C(Nc1cccc(Cl)c1)Nc1ncc(CCNc2ncnc3ccsc23)s1 + CC(C)CCN1c2nc(Nc3cc(F)c(O)c(F)c3)ncc2N(C)C(=O)C1C [BID1870] (first compound 0.004 µM, partner dose 1 µM) | 36.3
8 | COc1cc(Nc2ncc(F)c(Nc3ccc4c(n3)NC(=O)C(C)(C)O4)n2)cc(OC)c1OC [Tamatinib] + N#Cc1c(O)c2c(-c3ccc(-c4ccccc4O)cc3)csc2[nH]c1=O [A769662] (first compound 2 µM, partner dose 10 µM) | 81.7
9 | O=C(Nc1cccc(Cl)c1)Nc1ncc(CCNc2ncnc3ccsc23)s1 + COC(=O)c1sccc1S(=O)(=O)Nc1ccc(Nc2ccccc2)cc1OC [GSK0660] (first compound 0.004 µM, partner dose 5 µM) | 33.1
10 | O=C(Nc1cccc(Cl)c1)Nc1ncc(CCNc2ncnc3ccsc23)s1 + c1cc(-c2cnn3cc(-c4ccc(OCCN5CCCCC5)cc4)cnc23)ccn1 [Dorsomorphin] (first compound 0.004 µM, partner dose 2 µM) | 51.7
11 | CC1(C)NC(=O)N(c2ccc([N+](=O)[O-])c(C(F)(F)F)c2)C1=O [nilutamide] + COc1ccc2c(c1)CCC1C2CCC2(C)C(NCCCCCCN3C(=O)C=CC3=O)CCC12 [U73122] (first compound 5 µM, partner dose 2 µM) | 96.4
12 | O=C(Nc1cccc(Cl)c1)Nc1ncc(CCNc2ncnc3ccsc23)s1 + Oc1cc(-c2nc(-c3ccccc3)[nH]c2-c2ccncc2)ccc1Cl [L779450] (first compound 0.004 µM, partner dose 1 µM) | 40.6
13 | CC1(C)NC(=O)N(c2ccc([N+](=O)[O-])c(C(F)(F)F)c2)C1=O [nilutamide] + Cc1cc([N+](=O)[O-])ccc1NS(=O)(=O)c1cc(Cl)ccc1Cl [FH535] (first compound 5 µM, partner dose 5 µM) | 90.4
14 | O=C(O)c1ccc(-c2c[nH]c3ncc(-c4ccccc4)cc23)cc1C1CCCC1 + CC(C)CCN1c2nc(Nc3cc(F)c(O)c(F)c3)ncc2N(C)C(=O)C1C [BID1870] (first compound 0.8 µM, partner dose 1 µM) | 72.4
15 | Cn1cncc1[C@@](N)(c1ccc(Cl)cc1)c1ccc2c(c1)c(-c1cccc(Cl)c1)cc(=O)n2C [tipifarnib] + COc1cc(N2CCC(N3CCN(C)CC3)CC2)ccc1Nc1ncc(Cl)c(Nc2ccccc2S(=O)(=O)C(C)C)n1 [NVP-TAE684] (first compound 0.05 µM, partner dose 0.4 µM) | 57.7
16 | O=C(O)c1ccc(-c2c[nH]c3ncc(-c4ccccc4)cc23)cc1C1CCCC1 + COc1ccc2c(c1)CCC1C2CCC2(C)C(NCCCCCCN3C(=O)C=CC3=O)CCC12 [U73122] (first compound 0.8 µM, partner dose 2 µM) | 90.6
17 | C[C@@H]1CCN(C(=O)CC#N)C[C@@H]1N(C)c1ncnc2[nH]ccc12 + O=C(O)C(=O)Nc1sc2c(c1C(=O)O)CCNC2 [TCS401] (first compound 5 µM, partner dose 8.33333 µM) | 97.7
18 | C[C@@H]1CCN(C(=O)CC#N)C[C@@H]1N(C)c1ncnc2[nH]ccc12 + CCCCCCCCCCCC1=C(O)C(=O)C=C(O)C1=O [Embelin] (first compound 5 µM, partner dose 6 µM) | 101
19 | O=C(Nc1cccc(Cl)c1)Nc1ncc(CCNc2ncnc3ccsc23)s1 + COc1ccc(COc2ccc(Cc3cnc(N)nc3N)cc2OC)cc1 [GW2580] (first compound 0.004 µM, partner dose 5 µM) | 54.9
20 | COc1cc(Nc2ncc(F)c(Nc3ccc4c(n3)NC(=O)C(C)(C)O4)n2)cc(OC)c1OC [Tamatinib] + COc1ccc2c(c1)CCC1C2CCC2(C)C(NCCCCCCN3C(=O)C=CC3=O)CCC12 [U73122] (first compound 2 µM, partner dose 2 µM) | 77
21 | C[C@@H]1CCN(C(=O)CC#N)C[C@@H]1N(C)c1ncnc2[nH]ccc12 + O=C(Nc1ccccc1)c1cc([N+](=O)[O-])ccc1Cl [GW9662] (first compound 5 µM, partner dose 10 µM) | 83.1
22 | C[C@@H]1CCN(C(=O)CC#N)C[C@@H]1N(C)c1ncnc2[nH]ccc12 + CC(C)CCN1c2nc(Nc3cc(F)c(O)c(F)c3)ncc2N(C)C(=O)C1C [BID1870] (first compound 5 µM, partner dose 1 µM) | 78.4
23 | O=C(O)c1ccc(-c2c[nH]c3ncc(-c4ccccc4)cc23)cc1C1CCCC1 + Oc1cc(-c2nc(-c3ccccc3)[nH]c2-c2ccncc2)ccc1Cl [L779450] (first compound 0.8 µM, partner dose 1 µM) | 50.3
24 | Cn1cncc1[C@@](N)(c1ccc(Cl)cc1)c1ccc2c(c1)c(-c1cccc(Cl)c1)cc(=O)n2C [tipifarnib] + O=S(=O)(c1ccccc1)N(CC(F)(F)F)c1ccc(C(O)(C(F)(F)F)C(F)(F)F)cc1 [T0901317] (first compound 0.05 µM, partner dose 7 µM) | 58.5
25 | CC1(C)NC(=O)N(c2ccc([N+](=O)[O-])c(C(F)(F)F)c2)C1=O [nilutamide] + O=S(=O)(c1ccccc1)N(CC(F)(F)F)c1ccc(C(O)(C(F)(F)F)C(F)(F)F)cc1 [T0901317] (first compound 5 µM, partner dose 7 µM) | 84.5
26 | O=C(Nc1cccc(Cl)c1)Nc1ncc(CCNc2ncnc3ccsc23)s1 + COc1ccc(-c2ccc3c(N4CCOCC4)nc(N4C[C@@H](C)O[C@@H](C)C4)nc3n2)cc1CO [KU0063794] (first compound 0.004 µM, partner dose 0.1 µM) | 52.1
27 | CC1(C)NC(=O)N(c2ccc([N+](=O)[O-])c(C(F)(F)F)c2)C1=O [nilutamide] + CCCCCCCCCCCC1=C(O)C(=O)C=C(O)C1=O [Embelin] (first compound 5 µM, partner dose 6 µM) | 94.3
28 | COc1cc(Nc2ncc(F)c(Nc3ccc4c(n3)NC(=O)C(C)(C)O4)n2)cc(OC)c1OC [Tamatinib] + COc1cc(N2CCC(N3CCN(C)CC3)CC2)ccc1Nc1ncc(Cl)c(Nc2ccccc2S(=O)(=O)C(C)C)n1 [NVP-TAE684] (first compound 2 µM, partner dose 0.4 µM) | 61.2
29 | COc1cc(Nc2ncc(F)c(Nc3ccc4c(n3)NC(=O)C(C)(C)O4)n2)cc(OC)c1OC [Tamatinib] + Cc1cc([N+](=O)[O-])ccc1NS(=O)(=O)c1cc(Cl)ccc1Cl [FH535] (first compound 2 µM, partner dose 5 µM) | 90
30 | CC1(C)NC(=O)N(c2ccc([N+](=O)[O-])c(C(F)(F)F)c2)C1=O [nilutamide] + COc1ccc(-c2ccc3c(N4CCOCC4)nc(N4C[C@@H](C)O[C@@H](C)C4)nc3n2)cc1CO [KU0063794] (first compound 5 µM, partner dose 0.1 µM) | 95
31 | O=C(O)c1ccc(-c2c[nH]c3ncc(-c4ccccc4)cc23)cc1C1CCCC1 + COc1cc(N2CCC(N3CCN(C)CC3)CC2)ccc1Nc1ncc(Cl)c(Nc2ccccc2S(=O)(=O)C(C)C)n1 [NVP-TAE684] (first compound 0.8 µM, partner dose 0.4 µM) | 88.7
32 | Cn1cncc1[C@@](N)(c1ccc(Cl)cc1)c1ccc2c(c1)c(-c1cccc(Cl)c1)cc(=O)n2C [tipifarnib] + CCCCCCCCCCCC1=C(O)C(=O)C=C(O)C1=O [Embelin] (first compound 0.05 µM, partner dose 6 µM) | 82.6
